# Data taken from the supplement of paper PMC12217912.
# The other results are listed elsewhere or left out. The full chains were built here from the parent and the listed change. Values near 0.05 are background.
# B1: TEV protease; numbered along this chain (parent)
# chain: MGESLFKGPRDYNPISSSICHLTNESDGHTTSLYGIGFGPFIITNKHLFRRNNGTLVVQSLHGVFKVKDTTTLQQHLVDGRDMIIIRMPKDFPPFPQKLKFREPQREERICLVTTNFQTKSMSSMVSDTSCTFPSGDGIFWKHWIQTKDGQCGSPLVSTRDGFIVGIHSASNFTNTNNYFTSVPKNFMELLTNQEAQQWVSGWRLNADSVLWGGHKVFMVKPEEPFQPVKEATQL
# Variants of: B1
# Experiment: raw area under fraction-flipped curve 0-4 h after induction (AUC4h, not background-subtracted), DNA-recorder readout of cleavage of the substrate (dimensionless); higher = more cleavage of the substrate by the protease variant
# Conditions: temperature: 34 °C; time window: 0-4 h after rhamnose induction
# Method: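 In vivo DNA recorder in E. coli TOP10(DE3) ΔrhaA at 34 °C. Each TEVp single-site mutant (parent TEVp 0) is paired with a single-site variant of the 7-mer TEVs (canonical ENLYFQ|S). The substrate sits between flexible linkers in a Bxb1-sfGFP-TEVs-SsrA fusion, so cleavage stabilises Bxb1 and speeds flipping of a recombination array, read by NGS. The value is the raw area under the fraction-flipped curve over 0-4 h after rhamnose induction (AUC4h), with ≥20 reads per time point. It is not background-subtracted; inactive controls average about 0.047.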
# 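Also: Bxb1 expression induced with 0.2% (w/v) L-rhamnose at OD600 near 0.5, cultures sampled hourly, flipped fraction per protease–substrate barcode pair counted by paired-end Illumina sequencing.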
Variant,area with substrate CNLYFQS,area with substrate GNLYFQS,area with substrate HNLYFQS,area with substrate INLYFQS,area with substrate KNLYFQS,area with substrate LNLYFQS,area with substrate NNLYFQS,area with substrate PNLYFQS,area with substrate TNLYFQS,area with substrate VNLYFQS,area with substrate YNLYFQS,area with substrate RNLYFQS,area with substrate WNLYFQS,area with substrate FNLYFQS,area with substrate MNLYFQS,area with substrate QNLYFQS,area with substrate SNLYFQS
L5Q,0.0685,0.0705,0.0569,0.0672,0.0721,0.0605,0.0731,0.0726,0.032,0.0662,0.0291,,,,,,
S26V,0.0643,0.0777,0.059,,,0.0578,,0.0696,,0.0551,0.0543,0.06,0.061,,,,
T23M,0.0712,,0.0615,0.0521,0.066,0.0701,0.0556,0.062,0.0592,0.0877,0.0559,,0.0599,0.0704,0.0527,0.0509,
T23Q,0.0585,0.0625,,0.0717,0.0849,0.0406,0.0683,0.0755,0.0599,0.0741,,,0.0526,,0.126,0.0731,0.0639
L33F,0.0571,0.0754,0.0615,0.0521,0.073,0.0566,0.0574,0.0424,0.0599,0.0481,,0.0582,0.0604,0.0678,0.0635,0.0674,0.0598
L33Q,0.0561,0.0827,0.0453,0.0359,0.0625,0.0525,,0.0608,0.0653,0.0593,0.0655,0.0798,0.0582,0.0674,0.0594,0.0539,0.0637
L33V,0.0539,0.0464,0.0648,,,0.0712,0.0643,0.0531,0.0647,,,,0.0591,0.0655,0.0639,,0.0639
D27V,0.0619,0.105,0.065,,0.0591,,0.0608,0.0598,0.0543,,0.0658,,0.0564,0.0802,0.0647,,0.0441
P9A,0.0519,,0.0615,0.0678,0.0714,0.0654,,0.065,0.0593,0.0607,,0.0516,0.0533,,,,0.0696
S32N,0.0645,0.0671,0.0667,,0.0669,0.0597,0.0622,0.0624,0.0797,0.0758,,,0.0478,0.0742,,0.062,
S4P,0.0774,0.0639,0.0805,0.062,0.0657,0.0602,0.068,0.0675,0.0642,0.0745,0.0654,,0.0602,0.0563,0.0588,0.0747,0.0817
S4V,0.0866,0.0516,0.0483,,0.0726,,0.073,0.0708,,,0.068,,,0.0697,0.0624,,
S4K,0.0678,0.0726,0.0781,,,0.105,,0.0764,0.0696,0.0733,0.081,0.0605,0.0519,0.0599,0.0817,,0.0652
S4E,0.0873,0.0782,0.0559,0.0706,,0.0865,,0.0893,,,0.0775,0.0668,0.0336,0.0706,,0.0753,0.0838
